The values below come from article PMC9911399, “Two distinct binding modes provide the RNA-binding protein RbFox with extraordinary sequence specificity”.

Where a chain is given by its changes, count along the chain named. The list shows a part of the results.

T1: RBFOX1 RRM RbFoxmut (Fox-RRM*) (Homo sapiens, UniProt Q9NWB1 109-208, R118D;E147R;N151S;E152T)
T1 sequence: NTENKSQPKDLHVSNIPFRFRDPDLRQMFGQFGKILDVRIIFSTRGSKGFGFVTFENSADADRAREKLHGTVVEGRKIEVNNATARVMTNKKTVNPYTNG

B1: GCCGCAU (DNA:RNA)
RNA: GGGAGACCGGAAUUCAGAUUGUCCGCCGCAUUUAAAUCCCGUCGUAGCCACCA
DNA 1: CAATCTGAATTCCGGTCTCCC
DNA 2: TGGTGGCTACGACGGGATT
B2: ACACCCG (DNA:RNA)
RNA: B1 RNA with G25A, C27A, G28C, A30C, U31G
DNA 1: CAATCTGAATTCCGGTCTCCC
DNA 2: TGGTGGCTACGACGGGATT
B3: GUUUCAA (DNA:RNA)
RNA: B1 RNA with C26U, C27U, G28U, U31A
DNA 1: CAATCTGAATTCCGGTCTCCC
DNA 2: TGGTGGCTACGACGGGATT
B4: UGACCUU (DNA:RNA)
RNA: B1 RNA with G25U, C26G, C27A, G28C, A30U
DNA 1: CAATCTGAATTCCGGTCTCCC
DNA 2: TGGTGGCTACGACGGGATT
B5: GGGCUAU (DNA:RNA)
RNA: B1 RNA with C26G, C27G, G28C, C29U
DNA 1: CAATCTGAATTCCGGTCTCCC
DNA 2: TGGTGGCTACGACGGGATT
B6: UGCCAUU (DNA:RNA)
RNA: B1 RNA with G25U, C26G, G28C, C29A, A30U
DNA 1: CAATCTGAATTCCGGTCTCCC
DNA 2: TGGTGGCTACGACGGGATT
B7: UAGUGUA (DNA:RNA)
RNA: GGGAGACCGGAAUUCAGAUUGUCCUAGUGUAUUAAAUCCCGUCGUAGCCACCA
DNA 1: CAATCTGAATTCCGGTCTCCC
DNA 2: TGGTGGCTACGACGGGATT
B8: CUCUAUA (DNA:RNA)
RNA: B7 RNA with U25C, A26U, G27C, G29A
DNA 1: CAATCTGAATTCCGGTCTCCC
DNA 2: TGGTGGCTACGACGGGATT
B9: AAGGGAG (DNA:RNA)
RNA: B7 RNA with U25A, U28G, U30A, A31G
DNA 1: CAATCTGAATTCCGGTCTCCC
DNA 2: TGGTGGCTACGACGGGATT
B10: AUGCGAG (DNA:RNA)
RNA: B7 RNA with U25A, A26U, U28C, U30A, A31G
DNA 1: CAATCTGAATTCCGGTCTCCC
DNA 2: TGGTGGCTACGACGGGATT
B11: UGCGCUC (DNA:RNA)
RNA: B1 RNA with G25U, C26G, A30U, U31C
DNA 1: CAATCTGAATTCCGGTCTCCC
DNA 2: TGGTGGCTACGACGGGATT
B12: GUUAAAC (DNA:RNA)
RNA: B1 RNA with C26U, C27U, G28A, C29A, U31C
DNA 1: CAATCTGAATTCCGGTCTCCC
DNA 2: TGGTGGCTACGACGGGATT
B13: CUUUGCA (DNA:RNA)
RNA: B7 RNA with U25C, A26U, G27U, U30C
DNA 1: CAATCTGAATTCCGGTCTCCC
DNA 2: TGGTGGCTACGACGGGATT
B14: AGACCCC (DNA:RNA)
RNA: B1 RNA with G25A, C26G, C27A, G28C, A30C, U31C
DNA 1: CAATCTGAATTCCGGTCTCCC
DNA 2: TGGTGGCTACGACGGGATT
B15: AGCUACU (DNA:RNA)
RNA: B1 RNA with G25A, C26G, G28U, C29A, A30C
DNA 1: CAATCTGAATTCCGGTCTCCC
DNA 2: TGGTGGCTACGACGGGATT
B16: CGAUGGG (DNA:RNA)
RNA: B7 RNA with U25C, A26G, G27A, U30G, A31G
DNA 1: CAATCTGAATTCCGGTCTCCC
DNA 2: TGGTGGCTACGACGGGATT
B17: CGCGCCG (DNA:RNA)
RNA: B1 RNA with G25C, C26G, A30C, U31G
DNA 1: CAATCTGAATTCCGGTCTCCC
DNA 2: TGGTGGCTACGACGGGATT
B18: AACACAC (DNA:RNA)
RNA: B1 RNA with G25A, C26A, G28A, U31C
DNA 1: CAATCTGAATTCCGGTCTCCC
DNA 2: TGGTGGCTACGACGGGATT
B19: UGGAGGA (DNA:RNA)
RNA: B7 RNA with A26G, U28A, U30G
DNA 1: CAATCTGAATTCCGGTCTCCC
DNA 2: TGGTGGCTACGACGGGATT
B20: GAUAUGU (DNA:RNA)
RNA: B1 RNA with C26A, C27U, G28A, C29U, A30G
DNA 1: CAATCTGAATTCCGGTCTCCC
DNA 2: TGGTGGCTACGACGGGATT
B21: UGCACCG (DNA:RNA)
RNA: B1 RNA with G25U, C26G, G28A, A30C, U31G
DNA 1: CAATCTGAATTCCGGTCTCCC
DNA 2: TGGTGGCTACGACGGGATT
B22: CUCCUCG (DNA:RNA)
RNA: B1 RNA with G25C, C26U, G28C, C29U, A30C, U31G
DNA 1: CAATCTGAATTCCGGTCTCCC
DNA 2: TGGTGGCTACGACGGGATT
B23: GACACCA (DNA:RNA)
RNA: B1 RNA with C26A, G28A, A30C, U31A
DNA 1: CAATCTGAATTCCGGTCTCCC
DNA 2: TGGTGGCTACGACGGGATT
B24: GUUGCGU (DNA:RNA)
RNA: B1 RNA with C26U, C27U, A30G
DNA 1: CAATCTGAATTCCGGTCTCCC
DNA 2: TGGTGGCTACGACGGGATT
B25: GCCUUUG (DNA:RNA)
RNA: B1 RNA with G28U, C29U, A30U, U31G
DNA 1: CAATCTGAATTCCGGTCTCCC
DNA 2: TGGTGGCTACGACGGGATT
B26: GAGCUGU (DNA:RNA)
RNA: B1 RNA with C26A, C27G, G28C, C29U, A30G
DNA 1: CAATCTGAATTCCGGTCTCCC
DNA 2: TGGTGGCTACGACGGGATT
B27: GGGGGCA (DNA:RNA)
RNA: B7 RNA with U25G, A26G, U28G, U30C
DNA 1: CAATCTGAATTCCGGTCTCCC
DNA 2: TGGTGGCTACGACGGGATT
B28: CUCCAGG (DNA:RNA)
RNA: B1 RNA with G25C, C26U, G28C, C29A, A30G, U31G
DNA 1: CAATCTGAATTCCGGTCTCCC
DNA 2: TGGTGGCTACGACGGGATT
B29: AGUACAA (DNA:RNA)
RNA: B1 RNA with G25A, C26G, C27U, G28A, U31A
DNA 1: CAATCTGAATTCCGGTCTCCC
DNA 2: TGGTGGCTACGACGGGATT
B30: AUAUUCA (DNA:RNA)
RNA: B7 RNA with U25A, A26U, G27A, G29U, U30C
DNA 1: CAATCTGAATTCCGGTCTCCC
DNA 2: TGGTGGCTACGACGGGATT
B31: GUAUCAU (DNA:RNA)
RNA: B1 RNA with C26U, C27A, G28U
DNA 1: CAATCTGAATTCCGGTCTCCC
DNA 2: TGGTGGCTACGACGGGATT

For the test, the target named is T1, RBFOX1 RRM RbFoxmut (Fox-RRM*). Briefly: EMSA; HiTS-Eq, 1 nM pool, 10 min; buffer printed only for the single-RNA assays: 10 mM Tris pH 7.5, 150 mM NaCl, 3.4 mM EDTA, 0.001% NP-40, 30 C. The following applies: tags: His6 N-terminal (pET28a); label: 5' 32P. The procedure, abridged:
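Relative association constants, normalised to the cognate motif, were derived by comparing read counts of each RNA species with those of the control reaction. The RNA sequenced was the free fraction, separated by 8% native PAGE after a 10 min equilibration in 50 µL of 1 nM 5′-radiolabelled RNA (7 randomized nucleotides) with increasing concentrations of purified wild-type or mutant RbFox RRM.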
In general terms: A gel shift assay detects complexes by their altered migration in electrophoresis.
As for B1, the binding signal is 0.109 KA relative to UGCAUGU. On to B2, for which the binding signal was 0.087 KA relative to UGCAUGU. Turning to B3, the binding signal was 0.0891 KA relative to UGCAUGU. For B4, the binding signal was 0.0862 KA relative to UGCAUGU. With B5, the binding signal was 0.104 KA relative to UGCAUGU. Take B6: the binding signal was 0.078 KA relative to UGCAUGU. In the case of B7, the binding signal was 0.215 KA relative to UGCAUGU. As for B8, the binding signal was 0.149 KA relative to UGCAUGU.

As to B9, the binding signal was 0.101 KA relative to UGCAUGU.

For the molecule B10, the binding signal is 0.153 KA relative to UGCAUGU. The same measure for B11: 0.0793 KA relative to UGCAUGU; for B12: 0.0658 KA relative to UGCAUGU; for B13: 0.246 KA relative to UGCAUGU. In the case of B14, the binding signal is 0.039 KA relative to UGCAUGU. Take B15: the binding signal is 0.1 KA relative to UGCAUGU. B16: the binding signal was 0.067 KA relative to UGCAUGU. The same measure for B17: 0.112 KA relative to UGCAUGU; for B18: 0.0626 KA relative to UGCAUGU; for B19: 0.0784 KA relative to UGCAUGU. On to B20, for which the binding signal is 0.157 KA relative to UGCAUGU. The same measure for B21: 0.223 KA relative to UGCAUGU; for B22: 0.0975 KA relative to UGCAUGU; for B23: 0.0708 KA relative to UGCAUGU.

Take B24: the binding signal was 0.17 KA relative to UGCAUGU. Then B25, with 0.0902 KA relative to UGCAUGU; and B26, with 0.11 KA relative to UGCAUGU; and B27, with 0.128 KA relative to UGCAUGU. Consider B28, for which the binding signal was 0.0613 KA relative to UGCAUGU. As for B29, the binding signal was 0.0581 KA relative to UGCAUGU.

For the molecule B30, the binding signal was 0.12 KA relative to UGCAUGU. Regarding B31, the binding signal is 0.21 KA relative to UGCAUGU.
